According to the supplement of paper PMC4967469:
The IC50 comes from the fitted curve, where viability falls to half of the control; where the fit passes the top or lowest dose, that dose stands as a limit. AUC, from the same fit, is the share of area under the viability curve across the 256-fold dose range: 1 means no effect, lower means more sensitive. The top dose, if marked as inferred, is not printed in the source and was worked back from the curve model. For some of these results: An entry number marks a drug with two screens in the source, which often give different values.

Columns and labels:
Assay in all cases: Viability of human cancer cell lines after 72 h of drug (GDSC screen)
HG-5-113-01 = compound: CNC(=O)c1ccc(Nc2cc(Nc3ccccc3S(=O)(=O)C(C)C)c3cc[nH]c3n2)nc1 [HG-5-113-01]; settings: top dose 10 µM; top dose inferred
Method: (§1)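 Human cancer cell lines in 384-well plates, medium with 10% serum, drug for 72 h over a 256-fold dose range (nine 2-fold or five 4-fold steps up to the top dose). Adherent lines were fixed and stained with the nucleic acid dye Syto60, suspension lines read with resazurin; signal relative to control wells, capped at 0 and 100%. One two-parameter sigmoid per drug and line, fitted in a mixed model over all curves with the slope shared within a line.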

VX-702 = compound: NC(=O)c1ccc(N(C(N)=O)c2c(F)cccc2F)nc1-c1ccc(F)cc1F [VX-702]; settings: top dose 2 µM; top dose inferred
Method: as §1

Wee1 inhibitor 681640 = compound: O=C1NC(=O)c2c1c(-c1ccccc1Cl)cc1[nH]c3ccc(O)cc3c21 [Wee1 inhibitor 681640]; settings: top dose 2 µM; top dose inferred
Method: as §1

Shikonin = compound: CC(C)=CC[C@@H](O)C1=CC(=O)c2c(O)ccc(O)c2C1=O [Shikonin]; settings: top dose 16 µM; top dose inferred
Method: as §1

Olaparib = compound: O=C(c1cc(Cc2n[nH]c(=O)c3ccccc23)ccc1F)N1CCN(C(=O)C2CC2)CC1 [Olaparib]
Method: as §1

BIRB 0796 = compound: Cc1ccc(-n2nc(C(C)(C)C)cc2NC(=O)Nc2ccc(OCCN3CCOCC3)c3ccccc23)cc1 [BIRB 0796]; settings: top dose 10 µM; top dose inferred
Method: as §1

SB-525334 = compound: Cc1cccc(-c2[nH]c(C(C)(C)C)nc2-c2ccc3nccnc3c2)n1 [SB-525334]; settings: top dose 20 µM; top dose inferred
Method: as §1

BMS-536924 = compound: Cc1cc(N2CCOCC2)cc2[nH]c(-c3c(NC[C@@H](O)c4cccc(Cl)c4)cc[nH]c3=O)nc12 [BMS-536924]; settings: top dose 4 µM; screen: GDSC drug entry 1091; top dose inferred
Method: as §1

[1] = top dose 5 µM, screen: GDSC drug entry 1017, top dose inferred
[2] = top dose 10 µM, screen: GDSC drug entry 1495

Row | Cell Line | AUC (HG-5-113-01) | IC50 (HG-5-113-01) | AUC (VX-702) | IC50 (VX-702) | AUC (Wee1 inhibitor 681640) | IC50 (Wee1 inhibitor 681640) | AUC (Shikonin) | IC50 (Shikonin) | AUC (Olaparib; [1]) | IC50 (Olaparib; [1]) | AUC (Olaparib; [2]) | IC50 (Olaparib; [2]) | AUC (BIRB 0796) | IC50 (BIRB 0796) | AUC (SB-525334) | IC50 (SB-525334) | AUC (BMS-536924) | IC50 (BMS-536924)
1 | IHH-4 (thyroid, semi-adherent) | 0.659 | 1.56 µM | 0.992 | > 2 µM | 0.865 | 1.22 µM | 0.133 | 0.101 µM | 0.935 | > 5 µM | 0.917 | 9.89 µM | 0.924 | > 10 µM | 0.967 | > 20 µM | 0.954 | > 4 µM
2 | JEG-3 (urogenital system, adherent) | 0.849 | 6.42 µM | 0.991 | > 2 µM | 0.883 | 1.77 µM | 0.579 | 1.61 µM | 0.98 | > 5 µM | 0.952 | > 10 µM | 0.967 | > 10 µM | 0.991 | > 20 µM | 0.954 | > 4 µM
3 | JHH-1 (liver, adherent) | 0.856 | 9.22 µM | 0.955 | > 2 µM | 0.873 | > 2 µM | 0.598 | 1.9 µM | 0.983 | > 5 µM | 0.965 | > 10 µM | 0.958 | > 10 µM | 0.932 | > 20 µM | 0.975 | > 4 µM
4 | K2 (melanoma, adherent) | 0.71 | 2.95 µM | 0.982 | > 2 µM | 0.981 | > 2 µM | 0.655 | 3.08 µM | 0.976 | > 5 µM | 0.975 | > 10 µM | 0.971 | > 10 µM | 0.953 | > 20 µM | 0.902 | > 4 µM
5 | KMH-2 (thyroid, adherent) | 0.787 | 3.85 µM | 0.99 | > 2 µM | 0.947 | > 2 µM | 0.34 | 0.379 µM | 0.982 | > 5 µM | 0.955 | > 10 µM | 0.989 | > 10 µM | 0.973 | > 20 µM | 0.83 | 2.15 µM
6 | KMRC-20 (kidney, adherent) | 0.877 | > 10 µM | 0.984 | > 2 µM | 0.889 | > 2 µM | 0.756 | 5.54 µM | 0.946 | > 5 µM | 0.983 | > 10 µM | 0.989 | > 10 µM | 0.984 | > 20 µM | 0.95 | > 4 µM
7 | KYSE-50 (oesophagus, adherent) | 0.773 | 3.57 µM | 0.99 | > 2 µM | 0.941 | > 2 µM | 0.284 | 0.26 µM | 0.99 | > 5 µM | 0.982 | > 10 µM | 0.984 | > 10 µM | 0.988 | > 20 µM | 0.897 | > 4 µM
8 | KYSE-150 (oesophagus, adherent) | 0.862 | 7.95 µM | 0.966 | > 2 µM | 0.937 | > 2 µM | 0.501 | 1.01 µM | 0.979 | > 5 µM | 0.979 | > 10 µM | 0.988 | > 10 µM | 0.964 | > 20 µM | 0.976 | > 4 µM
9 | KYSE-220 (oesophagus, adherent) | 0.664 | 1.84 µM | 0.985 | > 2 µM | 0.927 | > 2 µM | 0.663 | 2.91 µM | 0.985 | > 5 µM | 0.926 | > 10 µM | 0.977 | > 10 µM | 0.953 | > 20 µM | 0.831 | 2.74 µM
10 | KYSE-410 (oesophagus, adherent) | 0.742 | 3.25 µM | 0.979 | > 2 µM | 0.961 | > 2 µM | 0.397 | 0.51 µM | 0.969 | > 5 µM | – | – | 0.958 | > 10 µM | 0.964 | > 20 µM | 0.889 | > 4 µM
11 | KYSE-450 (oesophagus, adherent) | 0.755 | 3.23 µM | 0.988 | > 2 µM | 0.984 | > 2 µM | 0.189 | 0.126 µM | 0.988 | > 5 µM | 0.979 | > 10 µM | 0.937 | > 10 µM | 0.884 | 19.6 µM | 0.955 | > 4 µM
12 | LCLC-97TM1 (large cell lung carcinoma, adherent) | 0.655 | 1.76 µM | 0.971 | > 2 µM | 0.903 | > 2 µM | 0.428 | 0.622 µM | 0.95 | > 5 µM | 0.925 | > 10 µM | 0.981 | > 10 µM | 0.906 | > 20 µM | 0.83 | 2.86 µM
13 | LK-2 (lung squamous cell carcinoma, adherent) | 0.658 | 1.67 µM | 0.987 | > 2 µM | 0.955 | > 2 µM | 0.808 | 7.72 µM | 0.989 | > 5 µM | 0.94 | > 10 µM | 0.942 | > 10 µM | 0.92 | > 20 µM | 0.908 | > 4 µM
14 | LOU-NH91 (lung squamous cell carcinoma, adherent) | 0.862 | 9.85 µM | 0.986 | > 2 µM | 0.968 | > 2 µM | 0.738 | 5.15 µM | 0.986 | > 5 µM | 0.977 | > 10 µM | 0.882 | > 10 µM | 0.98 | > 20 µM | 0.927 | > 4 µM
15 | LS-180 (large intestine, adherent) | 0.955 | > 10 µM | 0.983 | > 2 µM | 0.909 | > 2 µM | 0.571 | 1.61 µM | 0.972 | > 5 µM | 0.903 | > 10 µM | 0.934 | > 10 µM | 0.982 | > 20 µM | 0.926 | > 4 µM
